Drawing on PubChem BioAssay AID1346428 (National Center for Advancing Translational Sciences (NCATS), 2018), this text covers activation for 23 compounds.

The whole screen tested about 48,000 compounds, of which about 1,200 (2.5%) were called active. Another 2% or so got no clear call; they are omitted.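 The calls were made as follows: active = activation of at least 60% and not above a set upper limit (about 1 call in 100 departs from these limits); inconclusive = activation of 40% to 60%, or above that upper limit; inactive = activation under 40%.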 This is one part of the list.

Chain of UniProt O75388 (O75388 whole entry, looked up): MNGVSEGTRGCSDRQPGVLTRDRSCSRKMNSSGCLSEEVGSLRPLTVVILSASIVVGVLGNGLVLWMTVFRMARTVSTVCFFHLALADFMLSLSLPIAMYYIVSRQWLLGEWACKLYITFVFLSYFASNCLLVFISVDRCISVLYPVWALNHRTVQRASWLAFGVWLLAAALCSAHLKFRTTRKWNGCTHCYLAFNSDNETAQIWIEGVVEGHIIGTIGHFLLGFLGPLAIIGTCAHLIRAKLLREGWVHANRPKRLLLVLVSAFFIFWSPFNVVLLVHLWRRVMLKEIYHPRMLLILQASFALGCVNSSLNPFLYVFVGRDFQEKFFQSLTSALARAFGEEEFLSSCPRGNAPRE

The test has as its target Probable G-protein coupled receptor 32 (Homo sapiens) (UniProt O75388). In words: qHTS for Agonists of Human Resolvin D1 Receptor DRV1. Also: 0% is about no effect. The conditions noted are these: CHO-K1 GPR32 beta-arrestin PathHunter luminescence, 90 min; at 76.9 µM; hits give high values; zero percent set by DMSO-only wells. In outline:
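Readings come from a cell-based beta-arrestin complementation format: CHO-K1 GPR32 stable cells (2,500/well) treated 90 min with compounds, then beta-Gal substrate added for 1 h before chemiluminescence imaging.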
On the technique in general: In qHTS, concentration-response curves come from the screen itself.
With `Clc1ccc(C(c2ccc(Cl)cc2)n2cc[n+](CC(OCc3ccc(Cl)cc3Cl)c3ccc(Cl)cc3Cl)c2)cc1` (stereo not drawn), the activation was inactive: -3.48%.
With `Cc1cccc(NC(=O)CSc2nc3n[nH]c(C)c3c(=N)n2-c2cccc(Cl)c2)c1`, the activation was inactive: -12.5%.
With `N#Cc1ccc(NC(=O)COCc2cc(-c3ccco3)on2)cc1` the figure was inactive: -14.2%.
Regarding `CCOC(=O)C1CCN(CCC(=O)Nc2ccccc2OC)CC1`, the activation is inactive: -4.56%.
In the case of `COc1ccc(OC)c(C2CC(=O)Nc3c2c(=O)[nH]c2nc4ccccc4n32)c1` (stereo not drawn), the activation was inactive: 3.02%.
Consider `Cc1cccc(CN2CCN(CC(=O)NCCc3ccc(Cl)cc3)C2=O)c1`, for which the activation was active: 74.8%.
As for `Cc1cc(C)c(NC(=O)c2oc3c(c2C)-c2[nH]ncc2CC3)c(C)c1`, the activation was inactive: -2.85%.
Regarding `Cc1ccc(C(=O)Nc2ccc(C(=O)O)cc2)cc1S(=O)(=O)N1CCC(C)CC1`, the activation is inactive: 0.872%.
With `Cc1cccc(-c2nc3scc(CCNS(=O)(=O)c4ccc(F)c(C(F)(F)F)c4)n3n2)c1`, the activation was inactive: -0.876%.
`CCCCOc1ccc(C(=O)NCc2cn3cccc(C)c3n2)cc1`: the activation is inactive: -9.98%.
Turning to `CCOC(=O)c1ccccc1NC(=O)CN1C(=O)CC(c2ccccc2)Sc2ccccc21` (stereo not drawn), the activation is inactive: -2.42%.
`Fc1ccccc1N1CCN(c2ncnc3onc(-c4ccc(Cl)cc4)c23)CC1`: the activation was inactive: -3.45%.
The result for `COc1ccc(Cl)cc1NC(=O)CSc1nc2c(oc3ccccc32)c(=O)n1Cc1ccco1` reads inactive: 0.997%; that for `Cc1ccc(NC(=O)/C=C/c2ccco2)cc1F`, inactive: -4.77%.
Take `CCOc1ccc(N(C)C(=O)C2CCN(S(=O)(=O)c3c(C)noc3/C=C/c3ccc(C)cc3)CC2)cc1`: the activation was inactive: -23.5%.
Consider `CCN(CC)c1nn2c(=O)c(C(=O)NCCc3ccccc3C)cnc2s1`, for which the activation was inactive: -5.44%.
As for `O=C(NCc1ccc(Cl)cc1)C1CCC(CNS(=O)(=O)c2ccccc2)CC1` (stereo not drawn), the activation was active: 83%.
With `CCCCOc1ccc(C(=O)NCCc2sc3nc(-c4ccc(OC)cc4)nn3c2C)cc1`, the activation was inactive: -0.469%.
Turning to `CCOc1cc2c(cc1OCC)C(CC(=O)O)N(C(=O)Nc1ccc(Br)c(C)c1)CC2` (stereo not drawn), the activation was inactive: -15%.
With `O=C(Nc1ccc(N2CCN(c3ccc(F)cc3)CC2)c(C(=O)O)c1)c1cccs1` the figure was inactive: 1.7%; with `COc1ccc(NC(=O)c2ccco2)cc1NC(=O)c1ccc(C#N)cc1F`, inactive: 45.2%; with `Cc1c(C(=O)Nc2ccc(F)c(Cl)c2)sc2nc3n(c(=O)c12)CCC3`, inactive: -10.5%.
In the case of `CCCNC(=O)c1cnn(-c2ccc(C)c(C)c2)c1C1CCN(C(=O)OC(C)(C)C)CC1`, the activation is inactive: -10.8%.
